Data taken from the supplement of paper PMC12217912.
Some of the results follow. Sequences were assembled here from the parent chain. Values near 0.05 are background.

B1: TEV protease; numbered along this chain (parent)
chain: MGESLFKGPRDYNPISSSICHLTNESDGHTTSLYGIGFGPFIITNKHLFRRNNGTLVVQSLHGVFKVKDTTTLQQHLVDGRDMIIIRMPKDFPPFPQKLKFREPQREERICLVTTNFQTKSMSSMVSDTSCTFPSGDGIFWKHWIQTKDGQCGSPLVSTRDGFIVGIHSASNFTNTNNYFTSVPKNFMELLTNQEAQQWVSGWRLNADSVLWGGHKVFMVKPEEPFQPVKEATQL

Variants of: B1
Test: raw area under fraction-flipped curve 0-4 h after induction (AUC4h, not background-subtracted), DNA-recorder readout of cleavage of the substrate (dimensionless); higher = more cleavage of the substrate by the protease variant
Conditions: temperature: 34 °C; time window: 0-4 h after rhamnose induction
Procedure: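 In vivo DNA recorder in E. coli TOP10(DE3) ΔrhaA at 34 °C. Each TEVp single-site mutant (parent TEVp 0) is paired with a single-site variant of the 7-mer TEVs (canonical ENLYFQ|S). The substrate sits between flexible linkers in a Bxb1-sfGFP-TEVs-SsrA fusion, so cleavage stabilises Bxb1 and speeds flipping of a recombination array, read by NGS. The value is the raw area under the fraction-flipped curve over 0-4 h after rhamnose induction (AUC4h), with ≥20 reads per time point. It is not background-subtracted; inactive controls average about 0.047.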
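Also: Bxb1 expression induced with 0.2% (w/v) L-rhamnose at OD600 near 0.5, cultures sampled hourly, flipped fraction per protease–substrate barcode pair counted by paired-end Illumina sequencing.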

Variant | area with substrate ENLYFAS | area with substrate ENLYFHS | area with substrate ENLYFIS | area with substrate ENLYFMS | area with substrate ENLYFNS | area with substrate ENLYFTS | area with substrate ENLYFCS | area with substrate ENLYFDS | area with substrate ENLYFES | area with substrate ENLYFFS | area with substrate ENLYFKS | area with substrate ENLYFLS | area with substrate ENLYFPS | area with substrate ENLYFRS | area with substrate ENLYFSS | area with substrate ENLYFVS | area with substrate ENLYFWS | area with substrate ENLYFYS | area with substrate ENLYFGS
Q118T | 0.0652 | 0.0491 | 0.0621 | 0.0497 | 0.0571 | 0.0468 |  |  |  |  |  |  |  |  |  |  |  |  | 
L56D | 0.0447 | 0.0558 | 0.0427 | 0.0395 | 0.0346 | 0.0417 | 0.0311 | 0.0353 | 0.0568 | 0.048 | 0.0498 | 0.0404 | 0.0398 | 0.0441 | 0.0471 | 0.0451 | 0.0416 | 0.0409 | 
L56V | 0.0636 | 0.0579 | 0.0579 | 0.0632 | 0.0575 | 0.0597 |  | 0.0572 | 0.0527 | 0.0663 | 0.0503 |  | 0.0589 |  | 0.0829 | 0.0525 | 0.0637 |  | 0.0725
Q75C | 0.0572 | 0.0486 | 0.0538 | 0.0633 |  | 0.0693 | 0.0723 | 0.0552 | 0.0677 | 0.0378 |  | 0.0491 | 0.0617 |  | 0.0539 |  |  |  | 0.0403
P94G | 0.0396 |  | 0.0538 | 0.101 | 0.0672 | 0.0628 | 0.0618 |  | 0.0827 | 0.0719 | 0.0598 |  |  | 0.0549 |  |  | 0.0528 |  | 0.0573
T72D | 0.0494 |  | 0.0529 | 0.0627 | 0.0643 | 0.0639 | 0.0618 | 0.0508 | 0.0655 | 0.0695 | 0.0701 | 0.0358 | 0.0595 | 0.0673 |  | 0.0523 |  |  | 0.0565
R102T | 0.0633 |  | 0.049 | 0.0258 |  | 0.0527 | 0.044 |  | 0.0517 | 0.0744 | 0.0601 | 0.05 | 0.0566 | 0.028 |  |  | 0.0543 |  | 0.054
R102C | 0.0721 |  | 0.0515 | 0.0529 |  | 0.0507 | 0.0493 |  |  | 0.0592 |  |  | 0.0588 | 0.0489 | 0.0345 | 0.0544 | 0.0441 |  | 0.041
Q105M | 0.058 | 0.0562 | 0.063 | 0.0634 | 0.06 | 0.0619 | 0.0608 | 0.0413 | 0.0647 | 0.0829 | 0.0653 |  | 0.0524 | 0.0689 |  | 0.0633 | 0.0461 |  | 
E107A | 0.0561 | 0.0697 | 0.0566 |  | 0.0741 | 0.0636 | 0.0444 | 0.0644 | 0.0296 | 0.0528 | 0.0452 | 0.0677 | 0.0643 | 0.0723 | 0.053 | 0.0536 | 0.0495 |  | 
E107W | 0.0541 | 0.0688 | 0.0649 | 0.0657 |  |  | 0.0557 |  | 0.066 | 0.0865 | 0.0558 | 0.0545 | 0.0672 |  | 0.0863 | 0.0301 | 0.0673 |  | 
L77N | 0.0651 |  | 0.0636 | 0.0546 | 0.0502 |  | 0.0554 | 0.0422 | 0.0583 | 0.0652 | 0.0543 | 0.0532 | 0.0582 | 0.0652 |  |  |  | 0.0563 | 
L77S | 0.0685 | 0.0552 | 0.0534 | 0.0629 | 0.057 | 0.0571 |  | 0.0611 | 0.0557 | 0.0714 |  |  | 0.0632 | 0.0551 | 0.0597 | 0.0531 | 0.0587 | 0.0595 | 0.0743
M83W | 0.0582 |  | 0.0608 | 0.0621 | 0.0557 | 0.0545 |  | 0.0515 |  | 0.0578 | 0.064 |  | 0.065 | 0.0561 |  | 0.0525 |  | 0.0638 | 
K68T | 0.0588 | 0.0372 | 0.0631 | 0.079 | 0.0619 | 0.0671 |  | 0.0418 | 0.0433 |  | 0.0647 |  | 0.0409 | 0.0576 |  |  | 0.0511 | 0.0378 | 0.062
G63Q | 0.0601 | 0.0644 | 0.0476 | 0.0507 | 0.071 | 0.0221 | 0.0628 | 0.0556 | 0.0672 | 0.062 | 0.0521 |  | 0.0679 |  | 0.0525 |  |  | 0.0504 | 
T71W | 0.0521 | 0.0651 | 0.0493 | 0.0646 |  |  |  | 0.0177 |  |  |  | 0.0592 | 0.0464 |  | 0.0608 | 0.0542 |  | 0.0544 | 0.0606
T71C | 0.0594 |  | 0.0697 | 0.0612 | 0.0553 | 0.0591 | 0.0504 |  | 0.0544 | 0.0622 |  |  | 0.0537 | 0.0419 | 0.0515 | 0.0676 |  |  | 
T71L | 0.0515 | 0.043 | 0.0387 |  | 0.0469 | 0.0497 | 0.068 |  | 0.062 | 0.0588 | 0.069 |  |  |  |  | 0.0605 |  | 0.0452 | 0.0954
E108T | 0.0436 |  | 0.0534 | 0.0647 | 0.0585 |  | 0.051 | 0.0578 | 0.0471 | 0.075 | 0.0579 |  | 0.0451 | 0.058 | 0.018 | 0.0475 | 0.0434 |  | 
V57W | 0.05 | 0.0448 | 0.0536 | 0.0631 | 0.0569 | 0.0642 | 0.0628 |  | 0.0639 | 0.075 | 0.0635 | 0.0574 | 0.0564 | 0.0616 | 0.0569 | 0.0755 | 0.0534 | 0.0609 | 
V57G | 0.0589 |  | 0.0619 |  | 0.056 | 0.054 |  | 0.0815 | 0.0563 | 0.0666 | 0.0575 |  | 0.0602 | 0.0493 |  | 0.0544 | 0.0404 | 0.0531 | 0.0641
F65W | 0.0165 |  | 0.0579 | 0.0636 | 0.0765 | 0.0614 | 0.0488 |  | 0.0278 | 0.0646 | 0.058 | 0.0624 | 0.0594 | 0.045 |  |  | 0.037 | 0.0495 | 0.045
D69W | 0.0502 | 0.0588 | 0.0483 | 0.0378 |  | 0.0615 | 0.0476 |  | 0.0505 | 0.0818 |  | 0.0766 | 0.0685 |  |  | 0.0418 |  | 0.0476 | 
D69L | 0.0449 | 0.0656 | 0.0622 | 0.0652 | 0.0491 | 0.0559 | 0.05 | 0.0543 |  | 0.069 | 0.062 |  | 0.0556 | 0.0647 |  | 0.0693 | 0.0583 | 0.0742 | 
T115N | 0.0653 |  |  | 0.0477 | 0.0471 | 0.0413 |  | 0.0564 | 0.0989 |  |  |  | 0.0676 |  |  | 0.0639 | 0.0614 | 0.0681 | 
